{"source": "PubChem BioAssay AID1963576", "about": "(National Center for Advancing Translational Sciences (NCATS), 2024)", "note": "The whole screen tested about 46,000 compounds, of which about 60 (0.1%) were called active. Not shown: some 3% with an inconclusive outcome. Calls come from the whole dose curve; as a rule, active = well fitted inhibition curve with a large enough effect; inconclusive = small, poorly fitted or top-dose-only effect; inactive = no such curve, though single readings can be large or run the other way. The list shows a part of the results."}
{"assay": "Primary qHTS assay for Inhibitors of ovarian cancer metastasis using an organotypic tumor microenvironment (TME) model; note: nearly all actives have a fitted effect of over 65% in size;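 for activity change, negative = inhibition: plate controls were DMSO wells for no effect and tomatine positive control wells for full effect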.", "settings": "SKOV3ip1-GFP adhesion/invasion on 3D omental model, fluorescence; series mostly up to 45.8 µM; activity change, negative = inhibition: at the top concentration", "procedure,_shortened": "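Adhesion/invasion was scored as fixed GFP-labeled SKOV3ip1 cell counts (488/509 nm), normalized to DMSO and tomatine controls. Cancer cells in serum-free medium, with four compound doses (0.36-46 umol/L), sat 2 hr at RT then 16 hr at 37 C on a 48 hr fibroblast/mesothelial/ECM culture.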"}
{"smiles": "OCCC#Cc1nc(-c2ccc(F)cc2)c(-c2ccncc2)n1CCCc1ccccc1", "activity change, negative = inhibition": "inactive: -9.78%"}
{"smiles": "CCOC(=O)C1CCN(S(=O)(=O)c2ccc(N3CCCCS3(=O)=O)cc2)CC1", "activity change, negative = inhibition": "inactive: 1.03%"}
{"smiles": "CCCn1c(=O)c2sccc2n2c(CCCC(=O)Nc3ccc(Oc4ccccc4)cc3)nnc12", "activity change, negative = inhibition": "inactive: 4.79%"}
{"smiles": "COCCCOc1cc(C[C@@H](C[C@H](N)[C@@H](O)C[C@H](C(=O)NCC(C)(C)C(N)=O)C(C)C)C(C)C)ccc1OC", "activity change, negative = inhibition": "inactive: 6.62%"}
{"smiles": "Cc1ccc(CNC(=O)c2cc(-c3ccc(C)cc3)nc3n[nH]c(-c4ccc(F)cc4)c23)cc1", "activity change, negative = inhibition": "inactive: 1.93%"}
{"smiles": "CC(C)C1N=C2c3ccccc3N=C(SCC(=O)NCc3ccccc3Cl)N2C1=O", "note": "(centres undefined)", "activity change, negative = inhibition": "inactive: -4.57%"}
{"smiles": "CCn1c(SCc2ccc(F)cc2Cl)nc(=O)c2c(C(=O)OC)cc(C3CC3)nc21", "activity change, negative = inhibition": "inactive: -12.6%"}
{"smiles": "CC(=O)Nc1ccc(S(=O)(=O)NCc2cccn2Cc2cccc(C)c2)cc1", "activity change, negative = inhibition": "inactive: -3.27%"}
{"smiles": "CCOc1ccc(CN2C(=O)c3ccccc3Sc3ccc(C(=O)OC)cc32)cc1", "activity change, negative = inhibition": "inactive: -9.16%"}
{"smiles": "COc1ccc(N2CC(NC(=O)c3ccco3)CC2=O)cc1OC", "note": "(centres undefined)", "activity change, negative = inhibition": "inactive: 8.42%"}
{"smiles": "O=C(c1ccc2c(c1)CCN2S(=O)(=O)c1ccc(Cl)cc1)N1CCN(c2ccccc2)CC1", "activity change, negative = inhibition": "inactive: 2.72%"}
{"smiles": "COc1ccc(OC)c(CNC(=O)c2c(C)oc3ncn(C)c(=O)c23)c1", "activity change, negative = inhibition": "inactive: -1.13%"}
{"smiles": "COc1ccc(CNc2oc(/C=C/c3cccc(OC)c3)nc2C#N)cc1", "activity change, negative = inhibition": "inactive: -18.8%"}
{"smiles": "O=C(NCc1ccc(F)cc1)C1CCN(c2ncnc3c2nc2n3CCCCC2)CC1", "activity change, negative = inhibition": "inactive: -13.9%"}
{"smiles": "COc1ccc(CNC(=O)c2ccc3c(c2)N(Cc2ccccc2C)C(=O)c2ccccc2S3=O)cc1", "note": "(centres undefined)", "activity change, negative = inhibition": "inactive: -0.38%"}
{"smiles": "CCOCCCNC(=O)c1cn(CC)c2ccc(S(=O)(=O)N3CCc4ccccc4C3)cc2c1=O", "activity change, negative = inhibition": "inactive: 0.922%"}
{"smiles": "CCOC(=O)c1[nH]c(C)c(CCC(=O)N2CCN(c3cccc(C)c3C)CC2)c1C", "activity change, negative = inhibition": "inactive: -20.8%"}
{"smiles": "Cc1ccc2nc(-c3ccncc3)c(Nc3ccc(C(C)C)cc3)n2c1", "activity change, negative = inhibition": "inactive: -1.66%"}
{"smiles": "CC(=O)c1ccc(NC(c2ccc(F)cc2)c2nnc(-c3ccccc3)o2)cc1", "note": "(centres undefined)", "activity change, negative = inhibition": "inactive: -8.36%"}
{"smiles": "CC(C)(C)OC(=O)N1CCC(c2c(C(=O)N3CCN(c4ccccn4)CC3)cnn2-c2ccccc2Cl)CC1", "activity change, negative = inhibition": "inactive: -5.2%"}
{"smiles": "CN(Cc1ccccc1)C(=O)c1cccc(NC(=O)c2nsc3ccccc23)c1", "activity change, negative = inhibition": "inactive: -16.9%"}
{"smiles": "COc1cc(C(CC(=O)Nc2cc(C)ccc2C)N2Cc3ccccc3C2=O)cc(OC)c1OC", "note": "(centres undefined)", "activity change, negative = inhibition": "inactive: -4.9%"}
{"smiles": "CCOc1ccc(CC(=O)NCCc2csc(-c3ccc(Cl)cc3)n2)cc1", "activity change, negative = inhibition": "inactive: 1.32%"}
{"smiles": "CCOCCc1nn2c(=O)cc(COC(=O)CNC(=O)c3ccc(F)cc3)nc2s1", "outcome": "inactive"}
{"smiles": "CCc1ccc(Nc2sc(C(=O)c3ccccc3)c(N)c2S(C)(=O)=O)cc1", "outcome": "inactive"}
{"smiles": "Cc1ccc(CSc2nc(-c3ccc(C(C)(C)C)cc3)nc3cc(=O)[nH]n23)cc1", "activity change, negative = inhibition": "inactive: -28.4%"}
{"smiles": "Cc1ccc(NC(=O)C(=O)NCC(c2cccnc2)N2CCc3ccccc3C2)cc1", "note": "(centres undefined)", "activity change, negative = inhibition": "inactive: 23.2%"}
{"smiles": "C=Cc1ccc(Cn2c(C(=O)O)c(CNCc3ccccc3)c3ccc(OC)cc32)cc1", "outcome": "inactive"}
{"smiles": "Cc1ccc(F)cc1NC(=O)CCSc1nc(-c2ccco2)cc(C(F)(F)F)n1", "activity change, negative = inhibition": "inactive: -25.2%"}
{"smiles": "CC1CCCN(S(=O)(=O)c2cc(C(=O)NCc3ccccc3Cl)n(C)c2)C1", "note": "(centres undefined)", "activity change, negative = inhibition": "inactive: 2.91%"}
{"smiles": "CC(C)CCNC(=O)c1nn(C)c2c1CSc1ccccc1-2", "activity change, negative = inhibition": "inactive: -3.68%"}
{"smiles": "COC(=O)c1c(-c2cccs2)csc1NC(=O)c1cc(OC)c(OC)c(OC)c1", "activity change, negative = inhibition": "inactive: 3.45%"}
{"smiles": "CCOc1cc2[nH]c(=O)n(CCCC(=O)NCc3ccc(OC)cc3)c(=O)c2cc1OCC", "activity change, negative = inhibition": "inactive: -5.52%"}
{"smiles": "COc1ccc(-n2ccn(CC(=O)Nc3ccc(C)c(C)c3)c(=O)c2=O)cc1OC", "activity change, negative = inhibition": "inactive: 11.7%"}
{"smiles": "COc1ccc(-c2cn3c(n2)sc2cc(C(=O)Nc4ccc(F)cc4Cl)ccc23)cc1", "outcome": "inactive"}
{"smiles": "O=C(NC1CCCCCC1)c1ccc(CS(=O)c2ccc(Br)cc2)o1", "note": "(centres undefined)", "outcome": "inactive"}
{"smiles": "O=S(=O)(Nc1ccc(-c2ccc(N3CCCC3)nn2)cc1)c1ccc(OC(F)(F)F)cc1", "activity change, negative = inhibition": "inactive: 3.63%"}
{"smiles": "COc1cccc(C2c3c(-c4ccccc4O)n[nH]c3C(=O)N2Cc2cccnc2)c1", "note": "(centres undefined)", "activity change, negative = inhibition": "inactive: 5.27%"}
{"smiles": "CCN(C(=O)c1cc2cc(Br)cc(OC)c2oc1=O)c1ccccc1", "activity change, negative = inhibition": "inactive: -11.8%"}
{"smiles": "Cc1ccc(CCNC(=O)c2cccc(Nc3nc4ccccc4nc3-n3nc(C)cc3C)c2)cc1", "activity change, negative = inhibition": "inactive: -0.218%"}
{"smiles": "COc1ccc(S(=O)(=O)NCCc2sc(-c3cccc(C)c3)nc2C)cc1", "activity change, negative = inhibition": "inactive: 19.2%"}
{"smiles": "COc1ccc(CCNc2nc3ccccc3c3nc(-c4cccc(C)c4)nn23)cc1OC", "activity change, negative = inhibition": "inactive: -9.47%"}
{"smiles": "COc1cc(Br)ccc1C1C(C(=O)Nc2ccc(C)cc2C)=C(C)Nc2nnnn21", "note": "(centres undefined)", "activity change, negative = inhibition": "inactive: 0.177%"}
{"smiles": "Cc1ccc(NC(=O)CSCc2cnn(-c3ccccc3)c2-n2cccc2)c(Cl)c1", "outcome": "inactive"}
{"smiles": "CCc1ccccc1NC(=O)Cn1c(=O)n(-c2ccc(C)c(C)c2)c(=O)c2oc3ccccc3c21", "activity change, negative = inhibition": "inactive: 3.41%"}
{"smiles": "CCOc1cc(C(=O)OCc2cc(=O)n3nc(C4CC4)sc3n2)cc(OCC)c1OCC", "activity change, negative = inhibition": "inactive: 0.257%"}
{"smiles": "CC(C)CCNC(=O)c1ccc(Cn2c(SCC(N)=O)nc3ccccc3c2=O)cc1", "outcome": "inactive"}
{"smiles": "COc1cc(OC)c(NC(=O)NCc2cccn2Cc2ccccc2)cc1Cl", "activity change, negative = inhibition": "inactive: 7.3%"}
{"smiles": "Cc1nn(CC(=O)N2CCN(c3cccc(Cl)c3)CC2)c(=O)c2c1sc1ccccc12", "activity change, negative = inhibition": "inactive: 12.5%"}
{"smiles": "CCOC(=O)c1ccc(NC(=O)CCc2c(C)nc3c(c(C)nn3C(C)(C)C)c2C)cc1", "activity change, negative = inhibition": "inactive: -2.39%"}
{"smiles": "CCc1ccc(-n2nc(C)c3c(C(=O)N4CCN(c5cccc(Cl)c5)CC4)cc(C)nc32)cc1", "activity change, negative = inhibition": "inactive: -12.4%"}
{"smiles": "CN(C(=O)Cn1ncc2c1-c1ccccc1OC2)c1ccc(Br)cc1", "activity change, negative = inhibition": "inactive: -4.24%"}
{"smiles": "CCCCCn1c(CNC(=O)c2ccc(F)cc2)nc2ccccc21", "activity change, negative = inhibition": "inactive: 4.92%"}
{"smiles": "CCS(=O)(=O)c1cccc(C(=O)N2CCN(c3nc4c(C)ccc(Cl)c4s3)CC2)c1", "outcome": "inactive"}
{"smiles": "COC(=O)c1ccc(CSc2nc3c([nH]c4ccccc43)c(=O)n2-c2cc(C)cc(C)c2)o1", "outcome": "inactive"}
{"smiles": "CCCc1ccc(-c2ccc(C(=O)Oc3ccc(Br)cc3)cc2)nc1", "activity change, negative = inhibition": "inactive: -8.15%"}
{"smiles": "CCOc1ccc(NC(=O)Cn2c(=O)c(CNc3ccccc3)cc3cc4c(cc32)OCCO4)cc1", "activity change, negative = inhibition": "inactive: 8.88%"}
{"smiles": "O=C1COc2cc(S(=O)(=O)CCC(=O)N3CCN(c4ccccc4)CC3)c(Cl)cc2N1", "outcome": "inactive"}
{"smiles": "Cc1ccc(S(=O)(=O)NCCc2nnc3ccc(SCC(=O)Nc4ccc(OC(F)(F)F)cc4)nn23)cc1", "outcome": "inactive"}
